Source: patent US7160888B2, “[1,8]naphthyridin-2-ones and related compounds for the treatment of schizophrenia” (Warner Lambert Company LLC, priority 2003, dated 2007)

Target: dopamine D2 receptor (Homo sapiens, UniProt P14416)
Test: biochemical
Settings: D2 Ki (nM), Table 1; 0.4 nM [3H]spiperone, CHO-hD2L membranes

Chain of UniProt P14416 (P14416 whole entry): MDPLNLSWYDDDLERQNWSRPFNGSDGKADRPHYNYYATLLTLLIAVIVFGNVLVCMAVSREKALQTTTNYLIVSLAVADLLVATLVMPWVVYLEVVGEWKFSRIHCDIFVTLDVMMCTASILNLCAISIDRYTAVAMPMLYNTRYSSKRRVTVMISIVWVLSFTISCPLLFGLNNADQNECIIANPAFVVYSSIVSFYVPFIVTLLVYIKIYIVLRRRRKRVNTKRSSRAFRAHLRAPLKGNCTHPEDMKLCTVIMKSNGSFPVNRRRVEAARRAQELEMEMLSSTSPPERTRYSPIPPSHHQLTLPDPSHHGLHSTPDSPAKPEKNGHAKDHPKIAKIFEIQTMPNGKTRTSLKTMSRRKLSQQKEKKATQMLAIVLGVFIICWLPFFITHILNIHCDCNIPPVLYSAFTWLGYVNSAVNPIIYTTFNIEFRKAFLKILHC

Compound | Ki [nM]
CC(=O)c1ccc(N2CCN(CCCCOc3ccc4ccc(=O)[nH]c4n3)CC2)c2ccccc12 [Example B65, 7-{4-[4-(4-Acetyl-naphthalen-1-yl)-piperazin-1-yl]-butoxy}-1H-[1,8]naphthyridin-2-one] | 9.2
O=c1ccc2ccc(OCCCCN3CCN(c4cccc5cc(Cl)ccc45)CC3)nc2[nH]1 [Example B57, 7-{4-[4-(6-Chloro-naphthalen-1-yl)-piperazin-1-yl]-butoxy}-1H-[1,8]naphthyridin-2-one] | 4.1
CC(=O)Nc1ccc2cccc(N3CCN(CCCCOc4ccc5c(n4)NC(=O)CC5)CC3)c2c1 [Example A84, N-(8-{4-[4-(7-Oxo-5,6,7,8-tetrahydro-[1,8]naphthyridin-2-yloxy)-butyl]-piperazin-1-yl}-naphthalen-2-yl)-acetamide] | 3
O=c1ccc2ccc(OCCCCN3CCN(c4cccc(C(F)(F)F)c4)CC3)nc2[nH]1 [Example B15, 7-{4-[4-(3-Trifluoromethyl-phenyl)-piperazin-1-yl]-butoxy}-1H-[1,8]naphthyridin-2-one] | 2.5
CCc1c(Cl)cccc1N1CCN(CCCCOc2ccc3c(n2)NC(=O)CC3)CC1 [Example A29, 7-{4-[4-(3-Chloro-2-ethyl-phenyl)-piperazin-1-yl]-butoxy}-3,4-dihydro-1H-[1,8]naphthyridin-2-one] | 2.5
Cn1c(=O)ccc2ccc(OCCCCN3CCN(c4cccc5ccccc45)CC3)nc21 [Example B68, 1-Methyl-7-[4-(4-naphthalen-1-yl-piperazin-1-yl)-butoxy]-1H-[1,8]naphthyridin-2-one] | 4.5
O=C1COc2ccc(CCCCCN3CCN(c4cccc(Cl)c4Cl)CC3)nc2N1 [Example G1, 6-{5-[4-(2,3-Dichloro-phenyl)-piperazin-1-yl]-pentyl}-4H-pyrido[3,2-b][1,4]oxazin-3-one] | 7.5
CCc1cccc(N2CCN(CCCCOc3ccc4c(n3)NC(=O)CC4)CC2)c1 [Example A16, 7-{4-[4-(3-Ethyl-phenyl)-piperazin-1-yl]-butoxy}-3,4-dihydro-1H-[1,8]naphthyridin-2-one] | 3.5
O=C1CCc2ccc(OCCCCN3CCN(c4cccc5cccc(Cl)c45)CC3)nc2N1 [Example A77, 7-{4-[4-(8-Chloro-naphthalen-1-yl)-piperazin-1-yl]-butoxy}-3,4-dihydro-1H-[1,8]naphthyridin-2-one] | 10.8
O=C1CCc2ccc(OCCCCN3CCN(c4cccc5c4CCCC5=O)CC3)nc2N1 [Example A58, 7-{4-[4-(5-Oxo-5,6,7,8-tetrahydro-naphthalen-1-yl)-piperazin-1-yl]-butoxy}-3,4-dihydro-1H-[1,8]naphthyridin-2-one] | 30.4
O=C1CCc2ccc(CCCCCN3CCN(c4cccc(C5CC5)n4)CC3)nc2N1 [Example C18, 7-{5-[4-(6-Cyclopropyl-pyridin-2-yl)-piperazin-1-yl]-pentyl}-3,4-dihydro-1H-[1,8]naphthyridin-2-one] | 7.1
COC(=O)c1c(OCCCCN2CCN(c3cccc4ccccc34)CC2)ncc2c1NC(=O)CC2 [Example I11, 7-[4-(4-Naphthalen-1-yl-piperazin-1-yl)-butoxy]-2-oxo-1,2,3,4-tetrahydro-[1,6]naphthyridine-8-carboxylic acid methyl ester] | 8.7
CC(=O)c1cccc2c(N3CCN(CCCCOc4ccc5ccc(=O)[nH]c5n4)CC3)cccc12 [Example B64, 7-{4-[4-(5-Acetyl-naphthalen-1-yl)-piperazin-1-yl]-butoxy}-1H-[1,8]naphthyridin-2-one] | 17
CC(C)Oc1cccc(N2CCN(CCCCOc3ccc4ccc(=O)[nH]c4n3)CC2)c1Cl [Example B20, 7-{4-[4-(2-Chloro-3-isopropoxy-phenyl)-piperazin-1-yl]-butoxy}-1H-[1,8]naphthyridin-2-one] | 13
O=C1CCc2cnc(CCCCCN3CCN(c4cccc(Cl)c4Cl)CC3)cc2N1 [Example I1, 7-{5-[4-(2,3-Dichloro-phenyl)-piperazin-1-yl]-pentyl}-3,4-dihydro-1H-[1,6]naphthyridin-2-one] | 5
CC(CCCN1CCN(c2cccc3ccccc23)CC1)Oc1ccc2c(n1)NC(=O)CC2 (stereo not drawn) [Example C6, 7-[1-Methyl-4-(4-naphthalen-1-yl-piperazin-1-yl)-butoxy]-3,4-dihydro-1H-[1,8]naphthyridin-2-one] | 2

Same assay, conditions: D2 Ki (nM), Table 2; 0.4 nM [3H]spiperone, CHO-hD2L membranes

Compound | Ki [nM]
CN1CCCc2c1cccc2N1CCN(CCCCOc2ccc3c(n2)NC(=O)CC3)CC1 [Example A32′, 7-{4-[4-(1-Methyl-1,2,3,4-tetrahydro-quinolin-5-yl)-piperazin-1-yl]-butoxy}-3,4-dihydro-1H-[1,8]naphthyridin-2-one] | 28
O=c1ccc2ccc(OCCCCN3CCN(c4cccc5c4CCOC5)CC3)nc2[nH]1 [Example B18′, 7-[4-(4-Isochroman-5-yl-piperazin-1-yl)-butoxy]-1H-[1,8]naphthyridin-2-one] | 1.4
CC1(C)COc2c(cccc2N2CCN(CCCCOc3ccc4ccc(=O)[nH]c4n3)CC2)C1 [Example B17′, 7-{4-[4-(3,3-Dimethyl-chroman-8-yl)-piperazin-1-yl]-butoxy}-1H-[1,8]naphthyridin-2-one] | 1.4
O=c1ccc2cnc(OCCCCN3CCN(c4cccc5c4OCCC5)CC3)cc2[nH]1 [Example H8′, 7-[4-(4-Chroman-8-yl-piperazin-1-yl)-butoxy]-1H-[1,6]naphthyridin-2-one] | 3.5
O=C1CCc2ccc(OCCCCN3CCN(c4cccc5[nH]c(=O)oc45)CC3)nc2N1 [Example A1′, 7-{4-[4-(2-Oxo-2,3-dihydro-benzooxazol-7-yl)-piperazin-1-yl]-butoxy}-3,4-dihydro-1H-[1,8]naphthyridin-2-one] | 0.4
CC1(C)COc2c(cccc2N2CCN(CCCCOc3ccc4c(n3)NC(=O)CC4)CC2)C1 [Example A22′, 7-{4-[4-(3,3-Dimethyl-chroman-8-yl)-piperazin-1-yl]-butoxy}-3,4-dihydro-1H-[1,8]naphthyridin-2-one] | 0.7
CN(C)c1ccc2cccc(N3CCN(CCCCOc4ccc5c(n4)NC(=O)CC5)CC3)c2n1 [Example A45′, 7-{4-[4-(2-Dimethylamino-quinolin-8-yl)-piperazin-1-yl]-butoxy}-3,4-dihydro-1H-[1,8]naphthyridin-2-one] | 4.2
COc1ccc2cccc(N3CCN(CCCCOc4ccc5c(n4)NC(=O)CC5)CC3)c2n1 [Example A41′, 7-{4-[4-(2-Methoxy-quinolin-8-yl)-piperazin-1-yl]-butoxy}-3,4-dihydro-1H-[1,8]naphthyridin-2-one] | 1
O=c1ccc2cnc(OCCCCN3CCN(c4cccc5cccnc45)CC3)nc2[nH]1 [Example G3′, 2-[4-(4-Quinolin-8-yl-piperazin-1-yl)-butoxy]-8H-pyrido[2,3-d]pyrimidin-7-one] | 17.6
O=c1ccc2cnc(OCCCCN3CCN(c4cccc5c4OC(F)(F)O5)CC3)cc2[nH]1 [Example H9′, 7-{4-[4-(2,2-Difluoro-benzo[1,3]dioxol-4-yl)-piperazin-1-yl]-butoxy}-1H-[1,6]naphthyridin-2-one] | 0.6
O=c1ccc2ccc(OCCCCN3CCN(c4cccc5[nH]ccc45)CC3)nc2[nH]1 [Example B24′, 7-{4-[4-(1H-Indol-4-yl)-piperazin-1-yl]-butoxy}-1H-[1,8]naphthyridin-2-one] | 0.8
